# ChEMBL document CHEMBL4888484, “Replenishing the malaria drug discovery pipeline: Screening and hit evaluation of the MMV Hit Generation Library 1 (HGL1) against asexual blood stage Plasmodium falciparum ,using a nano luciferase reporter read-out” (2022)
# Hit rate of the full screen: of about 150,000 compounds, about 540 (0.36%) showed an effect of 50% or more. Some of the results follow.
# System: Plasmodium falciparum
# Assay: Primary screen in NF54 nanoGlo assay, in single point, at 2uM, 72h; a lower Z score goes with more inhibition
# Assay type: functional, Erythrocyte
# Conditions: timepoint 72 hour
Structure (SMILES),% Inhibition,Z score
C[C@@H](c1ccon1)N(C)C(=O)c1[nH]nc2c1CCC2,-8%,1.25
Cc1nn(C(C)(C)C)cc1[C@H](C)NC(=O)c1c[nH]c(C(F)(F)F)c1,-10%,1.63
Cc1nnc(NC2CC3CCC2O3)c(C#N)c1C (stereo not drawn),-6%,0.95
CCC1=NC(c2ccccc2)(c2ccccc2)c2ccccc2O1,8%,-1.58
O=C(O)CCN1C(=O)c2ccc(NC(=O)Cc3ccc(Cl)cc3)cc2C1=O,1%,-0.08
CN(CCO)C(=O)COc1ccc(-c2ccccc2)cc1CN1CCC(c2nncn2C)CC1,-3%,0.37
C=C(C)CN1CCN(CCn2cnnc2C)CC1,-1%,0.13
CCCn1cc(CCNS(=O)(=O)CCC)c2cccnc21,-11%,1.25
Cc1cc(C)nc(N[C@H]2CN(CC(=O)N(C)C)C[C@@H]2C(C)C)n1,1%,-0.12
CCn1cccc1-c1nc(C)c(C(=O)NCCc2ccc(OC)c(OC)c2)s1,-4%,0.64
O=C(C1=CCCCO1)N1CCCCCC1,-8%,0.82
CC(C)Cc1nc(N2CCN(C(=O)c3ccccc3F)CC2)c2c(-c3cccc(Oc4ccccc4)c3)noc2n1,-9%,1.76
CCCN1CC2(CCN(C(=O)c3cccc(C(C)=O)c3)CC2)C[C@H]1C(=O)O,-10%,1.66
O=C(O)[C@H]1CCN(c2nc(C3CC3)nc3[nH]ccc23)C1,-10%,1.99
Cc1ncc(CN2CCO[C@@]3(COCCN(C(=O)C(C)C)C3)C2)n1C,4%,-0.8
O=C(O)CN(Cc1ccccc1Br)CC1CC2CC2C1 (stereo not drawn),-1%,0.21
COc1ccc(NC(C)=O)cc1NC(=O)CCC(=O)c1ccc2c(c1)OCCCO2,6%,-1.04
COc1ccc(CNC2CCCC(O)CCC2)cc1 (stereo not drawn),-10%,1.05
COc1ccc(C(=O)NC(C)(C)C(C)(C)O)c(O)c1,-7%,1.06
Cc1cnn(C2CCN(S(=O)(=O)CCC3CCCC3)CC2)c1,-2%,0.43
Cc1nc(C(=O)N(C)Cc2sccc2C)c(C)[nH]1,6%,-0.88

Structure (SMILES),% Inhibition,Z score
Cc1ccc(C(=O)N(C)C)cc1N1C(=O)[C@H]2CCCN2C1=O,1%,-0.1
Cc1cc(N(C)C)ccc1NC(=O)C1CN(Cc2ccccc2)CC1C(F)(F)F (stereo not drawn),-5%,0.85
Cc1nnsc1C(=O)N[C@@H](C)c1ccn(C)n1,0%,-0.07
O=C(NC1CC(c2cccc(Cl)c2)C1)N1CCO[C@H](c2ccco2)C1 (stereo partly drawn),4%,-0.46
Cc1oc(-c2ccc(Cl)cc2)nc1C(=O)N1CCCN(C)c2nc3ccccc3nc21,-3%,0.38
CN(Cc1cccc(OC(F)(F)F)c1)Cc1nnc[nH]1,-4%,0.62
Cc1cc(=O)[nH]c(NCCNC(=O)Cn2cnc3ccccc3c2=O)n1,0%,-0.02
CS(=O)(=O)c1ccnc(NC(=O)NC2CC3CCC(C3)C2)c1 (stereo not drawn),-7%,1.35
COc1cc(NC(=O)c2cc(-c3cccc4ccccc34)[nH]n2)cc(OC)c1OC,41%,-4.65
CC[C@H](C)n1ncc(C(=O)Nc2cncnc2N2CCCC2)c1C,-10%,1.25
COCc1n[nH]c(C2(N3CCCC3)CCCC2)n1,-2%,0.38
Cc1nnsc1Cn1cnc(C(C)(C)C)c1,-4%,0.81
COc1ncc(Cl)c(N(C)CCN2CCOC(C)(C)C2)n1,3%,-0.26
O=S(=O)(CCC1CCOCC1)N[C@H](c1cccnc1)C1CC1,32%,-3.57
Cc1cc(=O)[nH]c(NCCNC(=O)C2(c3ccc(Cl)cc3)CCC2)n1,4%,-0.65
Cc1c(Cl)cccc1N1C(=O)C[C@H](N2CCN(CCOc3ccccc3)CC2)C1=O,-6%,0.5
Cc1nc2ccccc2c(NC(=O)C2=COCCO2)c1C(C)C,-3%,0.32
COCCN1CCn2cc(C(=O)NCCN3CCN(c4ccccc4)CC3)nc2C1=O,2%,-0.36
CN(Cc1cc[nH]n1)S(=O)(=O)c1cc(F)c(F)cc1F,-1%,0.11
COc1cccc(S(=O)(=O)N2[C@@H](CO)CN(C)C(=O)[C@@H]2C)c1,-6%,0.86
C[C@H]1Cc2ccccc2N1CCC(=O)Nc1ccccc1,2%,-0.31

Structure (SMILES),% Inhibition,Z score
O=C(NC1CCOC1C1CC1)c1ccc2[nH]nnc2n1 (stereo not drawn),4%,-0.36
CCc1nnc(CN(C)c2ccc3cc[nH]c3n2)o1,0%,0.02
Cc1nc(COc2ccccc2C(=O)Nc2ccc3ccccc3c2)cs1,-29%,3.41
O=C(Nc1cc(Cl)cc(C(=O)c2ccccc2)c1Cl)c1cc(Br)cc(Br)c1O,3%,-0.45
O=S1(=O)CC[C@H](N(C2CC2)S(=O)(=O)c2ccccc2F)C1,1%,-0.11
COc1cc(-c2ccc(C(=O)N3CC[C@H]4CC[C@@H](C3)N4C)cc2)nc(N)n1,-1%,0.14
O=C(NC1CC1)c1ccc2c(=O)n(-c3ccccc3)c(N3CCCCC3)nc2c1,-13%,2.36
CCOc1ccc([C@H](C)NC2CCN(OC)CC2)cc1,-15%,2.31
C[C@H](NC(=O)COCC(N)=O)c1nc(-c2ccccn2)no1,-14%,1.99
COC(=O)c1cc(NC(=O)Cc2ccccc2)c2oc(Cc3ccccc3)nc2c1,9%,-1.22
CCc1ccc([C@@H]2CCCCCN2CC(=O)NC2CCOCC2)o1,-18%,1.66
COC(=O)Nc1cccc(C(=O)N2CCC3CN(C(=O)OC(C)(C)C)CC3C2)c1 (stereo not drawn),-7%,0.68
CN(CCOC(=O)c1ccc(F)cc1)C(C)(C)C,0%,0.01
CCCCNC(=O)CN1C(=O)CCn2nc(-c3ccc(C)cc3)cc21,-6%,1.21
O=C(c1nc2ccccc2[nH]c1=O)N1CCO[C@H](c2cccnc2)C1,15%,-1.9
O=C1CC[C@@H](C(=O)NCCc2ccc(O)cc2)N1,2%,-0.22
COc1cc(NC(=O)c2csc(-c3cn(C)c4ncccc34)n2)cc(OC)c1,7%,-1.29
COc1ccccc1Oc1nc(N2CCC(C)CC2)nc2c1CN(Cc1ccc(F)cc1)CC2,11%,-1.47
CCN(C)c1nc(N2CCN(c3ccccc3)CC2)nc2c1CN(S(=O)(=O)c1cccc(C)c1)CC2,-11%,1.45
CNS(=O)(=O)c1cc(-c2nc(C3CN4CCCC4CO3)no2)c(C)o1 (stereo not drawn),-8%,1.14
CC(C)(C)OC(=O)NCc1nc2ccccn2c1Cl,-3%,0.54

Structure (SMILES),% Inhibition,Z score
CC1=CCN(C(=O)Nc2ccnn2[C@@H](C)C(C)C)CC1,-8%,0.83
COc1ccccc1CN1C[C@@H](c2nc(C)no2)CCC1=O,-3%,0.27
CC[C@H](C)N1CC(=O)N(c2ccns2)C1=O,-14%,2.59
CCOc1cccc(CCNS(=O)(=O)CCCC#N)n1,-7%,0.58
CCc1nn(-c2ccc(OC)cc2)c(Oc2ccccc2F)c1CCC(=O)NCC1CC1,9%,-0.93
Cc1nn(C)c(C)c1NC(=O)Nc1c(Cl)cc(C)c2ncccc12,3%,-0.59
Cc1ccc(C(=O)N2Cc3c(-c4nc(C5CCOCC5)no4)nn(C)c3C2)cc1F,4%,-0.66
Cc1nc2c(C#N)cnn2c(O)c1CC(=O)N[C@@H](C)C(C)C,-4%,0.64
O=C(O)[C@@H]1CN(c2nc(-c3ccccn3)nc3sccc23)CCO1,-16%,1.65
COC1(CNC(=O)C2C(C)OC(C)C2C)CCC(C(F)F)CC1 (stereo not drawn),-5%,0.67
Cc1nn(C(C)C)c(C)c1CNC[C@@H]1C[C@H](CO)N(C)[C@@H]1c1ccccc1F,-3%,0.4
Cc1cc(NC(=O)N[C@H]2CC3(CCCC3)Oc3ccccc32)n(C)n1,-5%,0.88
Cc1nc(CCNc2nnc(C(C)(C)C)s2)sc1C,10%,-1.27
Cc1ccccc1CN1CCCn2nc(C(=O)N(C)CC(=O)N3CCOCC3)cc2C1=O,-4%,0.62
Cc1c[nH]c(=O)c(CNC(=O)N[C@@H](C)c2cncc(F)c2)c1,-12%,1.25
CCCc1cc(=O)n2nc(Cc3ccccc3)c(-c3cccc4ccccc34)c2[nH]1,-17%,3.23
O=C(NCc1cn(-c2ccncc2)nn1)c1ccco1,17%,-2.2
Cc1oc2ncnc(NC(=O)C3CC3c3ccc4c(c3)OCCO4)c2c1C (stereo not drawn),-14%,2.3
COc1ccc(F)cc1C(=O)N1CCCO[C@@H](CN2CCCCC2)C1,-16%,1.4
Cc1cnc(CN2CCCC(C)C2CNC(=O)OC(C)(C)C)cn1 (stereo not drawn),-12%,2.59
C[C@@H](NC(=O)N[C@@H]1Cc2ccccc2[C@H]1O)c1cc2ccccc2o1,2%,-0.28
